In PubChem BioAssay AID1346428 (National Center for Advancing Translational Sciences (NCATS), 2018):
Hit rate of the full screen: of about 48,000 compounds, about 1,200 (2.5%) were called active. About 2% were inconclusive and are not listed.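 Rule for the calls: active = activation of at least 60% and not above a set upper limit (about 1 call in 100 departs from these limits); inconclusive = activation of 40% to 60%, or above that upper limit; inactive = activation under 40%.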 Some of the results follow.

Biological target: Probable G-protein coupled receptor 32 (Homo sapiens) (UniProt O75388)
Sequence of UniProt O75388 (O75388 whole entry, looked up): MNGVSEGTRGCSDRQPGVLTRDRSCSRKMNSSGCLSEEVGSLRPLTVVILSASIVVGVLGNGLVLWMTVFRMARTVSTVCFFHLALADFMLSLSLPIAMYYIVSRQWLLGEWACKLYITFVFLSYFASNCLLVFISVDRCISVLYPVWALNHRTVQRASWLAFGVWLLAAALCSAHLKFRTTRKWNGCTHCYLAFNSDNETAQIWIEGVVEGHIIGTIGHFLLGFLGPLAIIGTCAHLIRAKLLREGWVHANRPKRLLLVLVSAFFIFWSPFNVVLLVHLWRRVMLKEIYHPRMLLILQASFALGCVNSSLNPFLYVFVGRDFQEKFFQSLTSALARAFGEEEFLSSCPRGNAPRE
Assay: qHTS for Agonists of Human Resolvin D1 Receptor DRV1; note: 0% is about no effect
Conditions: CHO-K1 GPR32 beta-arrestin PathHunter luminescence, 90 min; at 76.9 µM; hits give high values; zero percent set by DMSO-only wells
Outline: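 Step 1: seed CHO-K1 GPR32 beta-arrestin cells, 2,500/well, overnight at 37 °C. Step 2: add compounds, 90 min at 37 °C. Step 3: detection reagent, 1 h ambient, then luminescence.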

activation, inactive:
CC(C)(C)OC(=O)N1CCC(c2c(C(=O)NCCN3CCOCC3)cnn2-c2cccc(F)c2)CC1 -0.536%
CCN1CCN(c2oc(-c3ccc(COc4ccc(OC)cc4)o3)nc2C#N)CC1 -14.2%
Clc1ccccc1-c1nc(-c2ccncc2)no1 45.3%
COc1ccc(OC)c(C(=O)CN2C(=O)N(c3cc(C)cc(C)c3)S(=O)(=O)c3ccccc32)c1 -35.1%
Clc1cccc(-n2ncc3c(NCCC4=CCCCC4)ncnc32)c1 -7.42%
COC(=O)c1c(NC(=O)C2c3ccccc3Oc3ccccc32)sc2c1CCC(C)C2 (stereo unspecified) -3.06%
Nc1nonc1-c1nc2ccccc2n1Cc1ccc(Br)cc1 13%
CC(=O)N1c2ccccc2C(=O)C1N1CCN(c2cccc(C)c2C)CC1 (stereo unspecified) -18.8%
Cc1ccc(NC(=O)CSc2nc3c(c(=O)[nH]2)CN(Cc2ccccc2)CC3)cc1Cl 2.84%
Nc1nc2nc(-c3ccc(Cl)cc3)cc(C(F)(F)F)n2n1 0.0918%
CC(CNC(=O)c1sc2ncccc2c1-n1cccc1)c1ccccc1 (stereo unspecified) -8.99%
Cc1ccc(NC(=O)C2=CC(c3cccs3)=NS(=O)(=O)N2C)cc1 -4.36%
Cc1nc2scc(C)n2c(=O)c1S(=O)(=O)Nc1ccc(N2CCN(C(=O)C(C)C)CC2)cc1 5.43%
CC1(C)CC(=O)c2cc(C(=O)Nc3ccc(Cl)cc3)c(=O)[nH]c2C1 10.2%
O=C(CC(c1cccs1)N1Cc2ccccc2C1=O)Nc1ccccc1F (stereo unspecified) -1.14%
Cc1ccc(CSC2=Nc3ccccc3C3=NC(CCC(=O)NCCc4ccccc4)C(=O)N23)cc1 (stereo unspecified) -34.8%
COC(=O)c1cc2occc2n1Cc1ccc(F)cc1Cl -32.6%
Cc1ccc(NC(=O)CN2C(=O)CSc3ccc(S(=O)(=O)N(C)C)cc32)cc1C -5.72%
CCOc1cc(C2C(C(N)=O)=C(C)Nc3ncnn32)cc(Br)c1O (stereo unspecified) 5.22%
Cc1ccc(C(=O)NCCSc2c(C)[nH]c3ccccc23)cc1C 6.61%
COc1ccc(-c2nc(S(=O)(=O)c3ccc(Cl)cc3)c(N3CCCCCC3)o2)cc1 -46.2%
Cc1ccc(-c2nn(CCC(=O)Nc3ccc(Cl)c(Cl)c3)c(=O)c3ccccc23)cc1 16.1%
O=C(Nc1ccc2oc(-c3cccc4c(Br)cccc34)nc2c1)c1ccc(Br)cc1 -9.3%
CC(=O)c1[nH]c(C)c(C(=O)NCc2ccc(Cl)cc2)c1C 3.43%
COc1cc(C)c(S(=O)(=O)Nc2cccc(-c3ccc(N4CCCC4)nn3)c2)cc1C 29.9%
Cc1cc(F)ccc1NC(=O)CCS(=O)(=O)c1cccc2nsnc12 -6.18%
CCN1C(=O)c2ccccc2S(=O)c2ccc(C(=O)N3CCN(c4ccc(F)cc4)CC3)cc21 (stereo unspecified) 0.384%
Cc1cccc(-c2nc(-c3ccc4c(c3)[nH]c(=O)n4C)no2)c1 2.26%
Cc1ccccc1CN1C(=O)c2ccccc2Sc2ccc(C(=O)N3CCOCC3)cc21 -21.5%
COc1ccccc1-c1c(C(F)(F)F)oc2c(CN3CCCCC3C)c(O)ccc2c1=O (stereo unspecified) -5.12%
Cc1cccc(NC(=O)CSc2nc3c(oc4ccccc43)c(=O)n2-c2ccccc2)c1C -1.99%
CCc1cc(=O)oc2cc(C)c3c(-c4ccc(F)cc4)coc3c12 0.505%
CCCN(CCC)CCCNC(=O)c1cc2c(-c3ccc(Cl)cc3)nn(C)c2s1 -1.75%
Cc1ccc(S(=O)(=O)N2CCC(C(=O)Nc3cc(C)ccc3C)CC2)cc1 13.3%
COc1ccc(Cn2c(=O)c3oc4ccccc4c3n(Cc3ccccc3)c2=O)cc1 -15%
CCN1CCCC(OC(=O)C(c2ccccc2)c2ccccc2)C1 (stereo unspecified) -1.15%
COc1cc(-c2cc3n(C)c(C)c(CCC(=O)Nc4ccc(F)cc4)c(=O)n3n2)cc(OC)c1OC -1.57%
Nc1ccc(C(=O)O)cc1 14.6%
O=C(CSc1c2c(nc3ccccc13)CCC2)Nc1ccc(F)cc1F -26.4%
Cc1ccc(OCCSc2nc(-c3cccs3)nc3cc(=O)[nH]n23)cc1Cl 1.06%
CCOC(=O)c1[nH]c(C)c(CCC(=O)NCc2cccc(Cl)c2)c1C -7.9%
COC(=O)c1ccc([C@@H]2Nc3c(cccc3C(F)(F)F)[C@@H]3C=CC[C@@H]32)cc1 -24.1%
COc1ccccc1CCNC(=O)Cc1c(C)c2c(O)cc(C)cc2oc1=O -0.368%
COc1ccccc1NC(=O)c1cc(S(=O)(=O)N2CCc3ccccc32)ccc1F -12.2%
COc1ccc(NC(=O)c2cc3c(=O)n(Cc4cccnc4)ccc3nc2C)cc1Cl -0.688%
C=Cc1ccc(Cn2c(=O)cc(C)c3c(C)nn(C)c32)cc1 10.7%
Cc1cccc(N2CCN(c3c4c(nc5nncn35)CCC4)CC2)c1C -8.22%
CN(C)c1ccc(C(CNS(=O)(=O)c2ccc(F)cc2)N2CCc3ccccc32)cc1 (stereo unspecified) -31.6%
COc1ccc(S(=O)(=O)c2cn(Cc3ccccc3)c3ccc(OC)cc3c2=O)cc1 -15.3%
COc1cc(-c2nnc(SCC(=O)Oc3ccccc3Cl)o2)cc(OC)c1OC -2.67%
O=[N+]([O-])c1nccn1CO[C@@H](CO)[C@H](O)CO -1.14%
O=c1c(N2CCc3ccccc3C2)csc2ccc(Br)cc12 -42.5%
COc1ccccc1NC(=O)c1cc(C2CC2)nc2c1c(C)nn2-c1ccc(C)cc1 -4.36%
CC(C)CCN(Cc1ccco1)C(=O)Cn1ncc2c([nH]c3ccccc32)c1=O 16.4%
Cc1cccc(C(=O)Nc2ccc(N3CCN(c4ccc(F)cc4)CC3)c(C(=O)O)c2)c1 -7.54%
CCOC(=O)c1cc(-c2ccccc2)n(CCCC(=O)Nc2cc(C)ccc2OC)c1C -30.9%
COc1ccc(OC)c(NC(=O)CCc2nc(-c3ccc(C)cc3)no2)c1 25.9%
Cc1c(C(=O)N2CCC(C)CC2)c(S(=O)(=O)N2CCN(c3cccc(Cl)c3)CC2)c(C)n1C -33.8%
Cc1ccn2c(Nc3ccc4c(c3)OCCO4)c(-c3ccc(C)s3)nc2c1 -4.6%
Cc1ccc2nc(SCC(=O)Nc3ccc(C#N)cc3)[nH]c2c1 45%
COc1ccc(Nc2cc(C(=O)NCc3ccccc3)c3ccccc3n2)cc1OC -4.58%
O=c1c(S(=O)(=O)c2ccc(Cl)cc2)cn(Cc2ccc(F)cc2)c2ccc(F)cc12 -22.8%
CCOc1ccc(C(=O)NCc2ccc3c(c2)CCN3C(=O)c2ccc(C)cc2)cc1OCC -19.9%
COc1ccc(S(=O)(=O)c2cn(Cc3ccccc3)c3cc(F)c(F)cc3c2=O)cc1 -6.2%
CN1C(=O)c2[nH]nc(-c3ccc(F)cc3)c2C1c1ccccn1 (stereo unspecified) -0.443%
Cc1cc(OCC(=O)NCC2(N3CCOCC3)CCCCC2)ccc1Cl -23.8%
CCc1noc(-c2ccc(N3CCCCC3)c([N+](=O)[O-])c2)n1 0%
COc1ccccc1CN1CCC(CNC(=O)c2cnn(-c3ccc(C)c(C)c3)c2C2CCN(C(=O)OC(C)(C)C)CC2)CC1 -20%
CCc1cccc(NC(=O)C(CC(C)C)NS(=O)(=O)c2ccc3c(c2)oc(=O)n3C)c1 (stereo unspecified) 2.82%
CCC(=O)N1CCc2cc(CNC(=O)Nc3cc(Cl)ccc3C(=O)OC)ccc21 -10.6%
Brc1ccc2nc(-c3ccccc3)c(Nc3ccc4c(c3)OCO4)n2c1 -6.33%
CCCN(CCC)CCNC(=O)c1cc(-c2ccc(Br)s2)nc2ccccc12 -5.49%
O=C(Nc1cccc(Cl)c1)C1CCCN1S(=O)(=O)c1cccc2cccnc12 (stereo unspecified) -8.08%
Cn1nnnc1SCCNCc1ccc(OCc2ccc(Cl)cc2)cc1 49.8%
CCc1ccc(CNC(=O)CN2C(=O)CCn3nc(-c4cn(C)c5ccccc45)cc32)cc1 -9.62%
Cc1cc(Cl)ccc1OCc1cc(=O)n2c3c(sc2n1)CCCC3 16.5%
Cc1ccc(CN2C(=O)c3ccccc3Sc3ccc(C(=O)NCCCN4CCOCC4)cc32)cc1 -9.79%
CCc1ccc(C2=C(C)C(N3CCC(C(=O)NCCc4ccco4)CC3)=NS2(=O)=O)cc1 -13.9%
COc1cccc(OCC(=O)Nc2nnc3n2CCS3)c1 -24.8%
Cc1oc(-c2cccc(Cl)c2)nc1CN1CCC(C(=O)NCCc2ccc(Cl)cc2)CC1 -2.52%
Cc1cccc(NC(=O)CSc2nc(=O)n(Cc3cccnc3)c3c2CCC3)c1C -9.31%
C[C@H]1O[C@@H](n2cc(F)c(=O)[nH]c2=O)[C@H](O)[C@@H]1O -5.08%
COc1ccc(C(=O)Nc2ccc(N3CCOCC3)c(C(F)(F)F)c2)cc1OC 37.1%
Cc1ccc(Cn2c(C)c(CNC(C)c3ccccc3)c(C(=O)O)c2C)cc1 (stereo unspecified) 0.0382%

activation, active:
COc1ccccc1Cc1nc2ccccc2nc1SCC(=O)N1CCC(C)CC1 64.4%
COc1ccccc1-c1nnc(SCC(=O)c2ccc(F)cc2)n1-c1ccccc1 69.9%
